From the supplement of paper PMC11417369
The other results are listed elsewhere or left out.

What follows are sequences tested on PF3D7_0420300 AP2 domain 1 (GST-tagged) (assay: gcPBM binding intensity (ln(normalized median fluorescence intensity)); higher = stronger DNA binding).
Method in brief: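 GST-tagged P. falciparum DNA-binding domains, expressed in E. coli (about 25 μg on average), were applied for 1 h to an Agilent 4 × 180k array of primer-extended double-stranded 36-bp intergenic genomic probes plus negative controls. The binding buffer was 1× PBS with 1% milk, 0.2 mg/ml BSA, 0.5% salmon testes DNA and 0.03% Triton X-100. Bound protein was detected with Alexa488 anti-GST antibody and scanned at 488 nm. Binding intensity is the highest Masliner-normalised natural-log median intensity across replicate spots of either probe orientation.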

| Sequence | gcPBM binding intensity (ln) |
| --- | --- |
| ATTATCCATGCATTTACACACACACTAAAAAAAATT [CACACA_site7848] | 9.92 |
| ATGTATATATATTTGTGTACATATTTAGGAAATAAA [XGTACX_site2904] | 9.18 |
| AATTAAATTTATATGAATGTCAATTATATTGTTATA [XGTACX_negctrl_site261] | 9.11 |
| TTGAATTAAAAACATACATGCATATATATATATATA [TGCATGCA_site319] | 8.99 |
| TTATAAAATGGGCAAACACACACAAAAAAAAGATAT [CACACA_site8476] | 10 |
| AATAAATTACTATGTACACACATAAGAGTATAAATA [CACACA_site6940] | 9.52 |
| AAAAAGTTACATGGTGGTACTCAAATAAAATATTCT [XGTACX_site5993] | 9.28 |
| TATAACTTTTATAGGTGTACCCAATATTATATATAG [XGTACX_site7673] | 8.99 |
| CCATCTTTTTTACGATGTACAAGTATAAGGTATACG [XGTACX_site2697] | 9.04 |
| TATATATAATAAGAAGGTACACGTAAGTAATAATTT [XGTACX_site934] | 9.67 |
| TTTATATGTTTTGTATTTTTAATAAATATTTTATTA [TGCATGCA_negctrl_site20] | 9.29 |
| AAATAAATAAATTAACGTACATAATAACATTAATAT [XGTACX_site8567] | 9.47 |
| ATATATATATATGTATGTACACATATTTTTTAACTT [XGTACX_site431] | 9.35 |
| TATATATATATTATTAGTACTTATTTTTTTTCATAT [XGTACX_site1279] | 9.45 |
| TGTAAAACCTCCTACACACACCAATTAACTATTCTA [CACACA_site7074] | 9.59 |
| TTATATTATAGACACACACACAAAAAAAAAAAAAAA [CACACA_site3816] | 9.81 |
| AATATAATTATATGTGGTACAGAAATAATATAAAAT [XGTACX_site2366] | 9.51 |
| TTCTTTTTTTTTCTGGGTACATATATTCCAATCACT [XGTACX_site4770] | 9.51 |
| TTATAAAAGACAAAAGTGCATATATACATATGTATA | 9.19 |
| CTACATACAAGAATTAAACACACACTAATTATAAAT [CACACA_site8986] | 9.75 |
| CCTCAATATTCACATACACACAATATCATCGAAGTA [CACACA_site1676] | 9.6 |
| TTATAATTTTAATGTGCACACAATTAAAATATTATA [CACACA_site5172] | 8.99 |

| Sequence | gcPBM binding intensity (ln) |
| --- | --- |
| TATAAATAAATATACACACACACATATAAATATGTA [CACACA_site6504] | 10.1 |
| TATTGACAAAAAAAAAAAAGGTAAAAAAGAAAGAAA [GTGCAC_negctrl_site418] | 9.3 |
| TTTTGTTTATGTGTGCATTATATTATATTTTTTATT [TGCATGCA_negctrl_site146] | 9.76 |
| TGTAAGAAATTGAGCGCACACATACATCTGTGGGAT [CACACA_site4945] | 9.55 |
| AAAGAAAGGAATACGACACACAAAAAAAAAATATAT [CACACA_site1934] | 10 |
| TAGTTGCACATGTATACACACAAAAAATATTTTATG [CACACA_site475] | 9.48 |
| AATAAATATAGGTACACACACAAATATGTACATATC [CACACA_site6976] | 9.91 |
| AAGAAACCATAATATGCATGCACATATTAATAAATA [TGCATGCA_site693] | 9.37 |
| AAGTGGTTATAATCAACACACGTGGAATGTACTTTA [CACACA_site3700] | 9.34 |
| AAATATTTTAACGAGAGTACATAATAACAATTTATG [XGTACX_site3865] | 9.32 |
| GAAAGAATAAAATTTACACACATATATAAATACATA [CACACA_site5273] | 9.61 |
| TTTTTTTTTTTTTATTGTACTAAATTATAGAGGGGA [XGTACX_site2609] | 8.79 |
| AAAAAAAAAAAATACACACACACATATATATATATA [CACACA_site731] | 9.79 |
| ATAAAACAACACACTTGTACTAATTTTTTTTTTTTT [XGTACX_site8377] | 9.32 |
| TAATTTATAAGGTATAACAACAATTGCATCTATCAC [XGTACX_negctrl_site314] | 9.22 |
| TGAATAAATAGACACACACACATATATAAATATGTA [CACACA_site6159] | 10 |
| TTTTTTTTTTTTTTGACACACATAATAAAATACAAA [CACACA_site3080] | 8.94 |
| AATAAGCATATACAAACATGCATACATATAAATAAA [TGCATGCA_site338] | 9.3 |
| GAAACGATTTAATACACACACGTATTATAGATATAT [CACACA_site6666] | 9.63 |
| TATATATTTGTAACGGGTACGTAGGTGTATATTCCA [XGTACX_site6028] | 9.4 |
| AGCCACGTGGTATATACACACATAATCAAATAAAAT [CACACA_site9364] | 9.68 |
| TCTATAAAGGAATATACACACATATATAAATATGTA [CACACA_site6332] | 9.41 |
